# Where “and” joins values, the source holds several entries; their conditions need not be identical. Equal entries are not always repeated. In all, about 5,300 compounds were measured (“PER2::LUC luminescence relative to vehicle control”: median about 0.96, highest 2% from about 1.3 on). The list shows a part of the results.
# Tested on: mPer2Luc MEF
# Assay: PER2::LUC luminescence relative to vehicle control (fold of vehicle); higher = higher PER2::LUC reporter signal
# Conditions: 10 µM
# In short: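 The reported values are PER2::LUC luminescence as fold of vehicle control in mouse embryonic fibroblasts carrying the mPer2Luc reporter. Cells were seeded at ~3000 per well in 384-well plates in DMEM with 10% FBS at 37 °C and 5% CO2, and compounds were added at 10 μM 48 h later. ONE-Glo luminescence was read 24 h and 30 h after treatment.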
compound,measurement,setting,value
Cc1ncc([N+](=O)[O-])n1CC(O)CCl (configuration not stated),PER2::LUC luminescence,time after treatment 24 h,1.03
same,PER2::LUC luminescence,time after treatment 30 h,0.7
COc1cc(OC)c2c(OC)c(-c3ccc4c(c3)OCO4)c(=O)oc2c1,PER2::LUC luminescence,time after treatment 24 h,1.02
same,PER2::LUC luminescence,time after treatment 30 h,1.21
CN1C(C(=O)Nc2ccccn2)=C(O)c2sccc2S1(=O)=O,PER2::LUC luminescence,time after treatment 24 h,1.16
same,PER2::LUC luminescence,time after treatment 30 h,0.971
N#Cc1ccc2[nH]cc(CCCCN3CCN(c4ccc5oc(C(N)=O)cc5c4)CC3)c2c1,PER2::LUC luminescence,time after treatment 24 h,0.548 and 0.415
same,PER2::LUC luminescence,time after treatment 30 h,0.682 and 0.756
CCCOc1ccc2c(c1)CC[C@@H]1[C@@H]2CC[C@]2(C)[C@@H](OC)CC[C@@H]12,PER2::LUC luminescence,time after treatment 24 h,0.458
same,PER2::LUC luminescence,time after treatment 30 h,0.736
Cc1cccc(/C=N/Nc2cc(N3CCOCC3)n3nc(-c4ccncc4)cc3n2)c1,PER2::LUC luminescence,time after treatment 24 h,0.081
same,PER2::LUC luminescence,time after treatment 30 h,0.064
COc1ccccc1C(=O)Nc1cccc(NC(=O)c2cccc(C)c2)c1,PER2::LUC luminescence,time after treatment 24 h,0.917
same,PER2::LUC luminescence,time after treatment 30 h,0.985
FC(F)(F)c1ccc(CNc2ccc(Cc3c[nH]c4ncc(Cl)cc34)cn2)cn1,PER2::LUC luminescence,time after treatment 24 h,0.702
same,PER2::LUC luminescence,time after treatment 30 h,0.701
O=C(Nc1ccccc1)c1ccccc1O,PER2::LUC luminescence,time after treatment 24 h,1.27
same,PER2::LUC luminescence,time after treatment 30 h,1.08
C=C1C(=O)[C@]23[C@H](CC[C@@H]1[C@@H]2O)[C@]12CO[C@@]3(O)[C@H](O)[C@H]1C(C)(C)CC[C@@H]2O,PER2::LUC luminescence,time after treatment 24 h,0.98
same,PER2::LUC luminescence,time after treatment 30 h,1.02
COC(=O)C[C@H]1C(C)(C)C(=O)[C@@H]2CC3=C(CC[C@]4(C)C3=CC(=O)O[C@H]4c3ccoc3)[C@@]1(C)C2=O,PER2::LUC luminescence,time after treatment 24 h,0.963
same,PER2::LUC luminescence,time after treatment 30 h,1.02
CN(C)[C@@H]1c2onc(OCc3ccccc3)c2C(=O)[C@@]2(O[Si](C)(C)C(C)(C)C)C(=O)C=CC[C@@H]12,PER2::LUC luminescence,time after treatment 24 h,0.723
same,PER2::LUC luminescence,time after treatment 30 h,0.75
CC(=O)c1cc([N+](=O)[O-])c(Sc2cccc(Cl)c2Cl)s1,PER2::LUC luminescence,time after treatment 24 h,1
same,PER2::LUC luminescence,time after treatment 30 h,0.969
COc1ccc2c(c1OC)OC[C@@H](c1ccc(OC)c(OC)c1OC)C2,PER2::LUC luminescence,time after treatment 24 h,1.06
same,PER2::LUC luminescence,time after treatment 30 h,0.944
Cn1c(=O)c2[nH]cnc2n(C)c1=O,PER2::LUC luminescence,time after treatment 24 h,1.05 and 0.927
same,PER2::LUC luminescence,time after treatment 30 h,1.04 and 0.953 and 0.859
CS(=O)(=O)c1ccc(C2=C(c3ccccc3)C(=O)OC2)cc1,PER2::LUC luminescence,time after treatment 24 h,0.844
same,PER2::LUC luminescence,time after treatment 30 h,0.925
C[C@H](NC(c1cccc2nc(O)c(O)nc12)P(=O)(O)O)c1ccc(Br)cc1 (some centres not stated),PER2::LUC luminescence,time after treatment 24 h,1.03
same,PER2::LUC luminescence,time after treatment 30 h,0.937
Oc1ccc(Cl)c2c1CCC2,PER2::LUC luminescence,time after treatment 24 h,0.846
same,PER2::LUC luminescence,time after treatment 30 h,1.05
Cc1[nH]c(=O)c(C#N)cc1-c1ccncc1,PER2::LUC luminescence,time after treatment 24 h,1.2
same,PER2::LUC luminescence,time after treatment 30 h,1.11
CC(C)[C@H](CO)Nc1nc(Nc2cccc(Cl)c2)c2ncn(C(C)C)c2n1,PER2::LUC luminescence,time after treatment 24 h,0.304
same,PER2::LUC luminescence,time after treatment 30 h,0.37
C#C[C@]1(O)CC[C@H]2[C@@H]3CCc4cc(OC5CCCC5)ccc4[C@H]3CC[C@@]21C,PER2::LUC luminescence,time after treatment 24 h,1.19
same,PER2::LUC luminescence,time after treatment 30 h,0.911
CN(C)CCC=C1c2ccccc2CCc2ccccc21,PER2::LUC luminescence,time after treatment 24 h,0.836
same,PER2::LUC luminescence,time after treatment 30 h,0.626
Cc1ccnc2c1NC(=O)c1cccnc1N2C1CC1,PER2::LUC luminescence,time after treatment 24 h,0.981 and 0.667
same,PER2::LUC luminescence,time after treatment 30 h,0.971 and 1.02
CN(CCc1ccc(Cl)c(Cl)c1)CCN1CCCC1,PER2::LUC luminescence,time after treatment 24 h,0.943
same,PER2::LUC luminescence,time after treatment 30 h,0.866
COc1cc(Cc2cnc(N)nc2N)cc(OC)c1OC,PER2::LUC luminescence,time after treatment 24 h,1.05
same,PER2::LUC luminescence,time after treatment 30 h,1.09
NC(=O)C(=O)O,PER2::LUC luminescence,time after treatment 24 h,1.12
same,PER2::LUC luminescence,time after treatment 30 h,1.11
CN(C(=O)c1ccc(F)cc1C(F)(F)F)C1CCN(c2nnc(-c3ccnn3C)c3ccccc23)CC1,PER2::LUC luminescence,time after treatment 24 h,1.07
same,PER2::LUC luminescence,time after treatment 30 h,0.916
FC(F)(F)c1cc(COC2CCCNC2c2ccccc2)cc(C(F)(F)F)c1 (configuration not stated),PER2::LUC luminescence,time after treatment 24 h,0.914
same,PER2::LUC luminescence,time after treatment 30 h,0.875
COc1cc2c(cc1OC)CN(CCc1ccc(NC(=O)c3cc(OC)c(OC)cc3NC(=O)c3cnc4ccccc4c3)cc1)CC2,PER2::LUC luminescence,time after treatment 24 h,0.998 and 0.571
same,PER2::LUC luminescence,time after treatment 30 h,1.06 and 0.586
C=C1C[C@@]23CC[C@H]4[C@@](C)(CCC[C@@]4(C)C(=O)O[C@@H]4O[C@H](CO)[C@@H](O)[C@H](O)[C@H]4O)[C@@H]2CC[C@]1(O[C@@H]1O[C@H](CO)[C@@H](O)[C@H](O)[C@H]1O[C@@H]1O[C@H](CO)[C@@H](O)[C@H](O)[C@H]1O)C3,PER2::LUC luminescence,time after treatment 24 h,1.13
same,PER2::LUC luminescence,time after treatment 30 h,0.945
CN(C)c1cc2c(Nc3ccc4c(cnn4Cc4ccccc4)c3)ncnc2cn1,PER2::LUC luminescence,time after treatment 24 h,0.858
same,PER2::LUC luminescence,time after treatment 30 h,0.96
CCN(CC)CCOC(=O)C(c1ccccc1)C1CCCCC1 (configuration not stated),PER2::LUC luminescence,time after treatment 24 h,0.692
same,PER2::LUC luminescence,time after treatment 30 h,0.864
COCC1=C(C(=O)OC(C)OC(=O)OC(C)C)N2C(=O)[C@@H](NC(=O)/C(=N\OC)c3csc(N)n3)[C@H]2SC1 (some centres not stated),PER2::LUC luminescence,time after treatment 24 h,1.03
same,PER2::LUC luminescence,time after treatment 30 h,1.06
Cc1cc(N2CCCCC2)nc2ccccc12,PER2::LUC luminescence,time after treatment 24 h,1.03
same,PER2::LUC luminescence,time after treatment 30 h,1.08
NS(=O)(=O)c1cccc2c1c([N+](=O)[O-])cc1nc(O)c(O)nc12,PER2::LUC luminescence,time after treatment 24 h,1.12
same,PER2::LUC luminescence,time after treatment 30 h,1.19
N#CC(=C(/N)Sc1ccccc1N)/C(C#N)=C(/N)Sc1ccccc1N,PER2::LUC luminescence,time after treatment 24 h,1.26
same,PER2::LUC luminescence,time after treatment 30 h,1.18
O=C1NCCSc2c1sc1ccc(O)cc21,PER2::LUC luminescence,time after treatment 24 h,1.01
same,PER2::LUC luminescence,time after treatment 30 h,0.824
COc1cc2c(cc1OC)C(=O)C(CC1CCN(Cc3ccccc3)CC1)C2 (configuration not stated),PER2::LUC luminescence,time after treatment 24 h,0.714 and 0.831
same,PER2::LUC luminescence,time after treatment 30 h,0.963 and 0.819
CCCCC(CC)CN1CN(CC(CC)CCCC)CC(C)(N)C1 (configuration not stated),PER2::LUC luminescence,time after treatment 24 h,0.916
same,PER2::LUC luminescence,time after treatment 30 h,1.11
NC(N)=NCc1cccc(I)c1,PER2::LUC luminescence,time after treatment 24 h,0.952
same,PER2::LUC luminescence,time after treatment 30 h,1.2
CC(C)CCCC(C)C1CCC2C3CCC4CCCCC4(C)C3CCC12C (configuration not stated),PER2::LUC luminescence,time after treatment 24 h,0.984
same,PER2::LUC luminescence,time after treatment 30 h,0.961
CNCC[C@H](Oc1cccc2ccccc12)c1cccs1,PER2::LUC luminescence,time after treatment 24 h,0.759 and 0.596
same,PER2::LUC luminescence,time after treatment 30 h,0.799 and 0.57
COc1ccc(S(=O)(=O)Nc2nc(-c3cccc([N+](=O)[O-])c3)cs2)cc1OC,PER2::LUC luminescence,time after treatment 24 h,1.08
same,PER2::LUC luminescence,time after treatment 30 h,1.04
O=C(CCCN1CCC(O)(c2ccc(Br)cc2)CC1)c1ccc(F)cc1,PER2::LUC luminescence,time after treatment 24 h,0.788
same,PER2::LUC luminescence,time after treatment 30 h,0.75
C[C@@H](Oc1cc(-n2cnc3ccc(CN4CCN(C)CC4)cc32)sc1C(N)=O)c1ccccc1C(F)(F)F,PER2::LUC luminescence,time after treatment 24 h,0.284
same,PER2::LUC luminescence,time after treatment 30 h,0.335
COc1ccccc1-c1cc(Nc2cccc(CS(N)(=O)=O)c2)ncn1,PER2::LUC luminescence,time after treatment 24 h,0.703
same,PER2::LUC luminescence,time after treatment 30 h,1.05
CC1(COc2ccc3c(c2)ncn3-c2ccc3cccc(N4CCC(N)CC4)c3n2)COC1,PER2::LUC luminescence,time after treatment 24 h,0.348
same,PER2::LUC luminescence,time after treatment 30 h,0.637
CO[C@@]1(NC(=O)Cc2cccs2)C(=O)N2C(C(=O)O)=C(COC(N)=O)CS[C@@H]21,PER2::LUC luminescence,time after treatment 24 h,0.931
same,PER2::LUC luminescence,time after treatment 30 h,1.18
CC(=O)c1ccc2c(c1)N(CCCN1CCC(CCO)CC1)c1ccccc1S2,PER2::LUC luminescence,time after treatment 24 h,0.531
same,PER2::LUC luminescence,time after treatment 30 h,0.554
O=[N+]([O-])c1cccc2c(Br)[nH]nc12,PER2::LUC luminescence,time after treatment 24 h,0.967
same,PER2::LUC luminescence,time after treatment 30 h,1.01
CN(C)C(=O)COC(=O)Cc1ccc(OC(=O)c2ccc(NC(=N)N)cc2)cc1,PER2::LUC luminescence,time after treatment 24 h,1.09
same,PER2::LUC luminescence,time after treatment 30 h,1.04
COc1ccc(Cc2cnc(N)nc2N)cc1OC,PER2::LUC luminescence,time after treatment 24 h,0.864
same,PER2::LUC luminescence,time after treatment 30 h,0.938
O=C(O)CCC(=O)N1CCC[C@H]1C(=O)O,PER2::LUC luminescence,time after treatment 24 h,0.796
same,PER2::LUC luminescence,time after treatment 30 h,0.741
N=C(N)NC(=O)c1nc(Cl)c(N)nc1N,PER2::LUC luminescence,time after treatment 24 h,1.32
same,PER2::LUC luminescence,time after treatment 30 h,1.12
CC(C)NCC(O)c1ccc(NS(C)(=O)=O)cc1 (racemic),PER2::LUC luminescence,time after treatment 24 h,1.1 and 1.04
same,PER2::LUC luminescence,time after treatment 30 h,0.786 and 0.824
Nc1ccccc1NC(=O)c1ccc(CNC(=O)OCc2cccnc2)cc1,PER2::LUC luminescence,time after treatment 24 h,0.568
same,PER2::LUC luminescence,time after treatment 30 h,0.633
